According to patent publication US20260209301A1, “Galanin-2 Receptor Agonists” (LIFEARC, priority 2022, published 2026):

T1: mouse GalR2 (Mus musculus) (UniProt O88854)
T1 sequence (looked up): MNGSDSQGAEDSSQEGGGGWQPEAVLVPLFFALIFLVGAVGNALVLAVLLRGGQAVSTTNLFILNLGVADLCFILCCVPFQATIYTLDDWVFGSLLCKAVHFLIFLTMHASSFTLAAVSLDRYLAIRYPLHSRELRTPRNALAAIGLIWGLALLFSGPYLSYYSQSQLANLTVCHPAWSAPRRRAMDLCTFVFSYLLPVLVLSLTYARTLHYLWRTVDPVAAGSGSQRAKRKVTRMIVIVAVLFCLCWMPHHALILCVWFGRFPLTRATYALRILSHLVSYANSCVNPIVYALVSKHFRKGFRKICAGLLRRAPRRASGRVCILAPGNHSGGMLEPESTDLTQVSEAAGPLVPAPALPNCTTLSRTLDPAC

T2: rat GalR2 (Rattus rattus) (UniProt O08726)
T2 sequence (looked up): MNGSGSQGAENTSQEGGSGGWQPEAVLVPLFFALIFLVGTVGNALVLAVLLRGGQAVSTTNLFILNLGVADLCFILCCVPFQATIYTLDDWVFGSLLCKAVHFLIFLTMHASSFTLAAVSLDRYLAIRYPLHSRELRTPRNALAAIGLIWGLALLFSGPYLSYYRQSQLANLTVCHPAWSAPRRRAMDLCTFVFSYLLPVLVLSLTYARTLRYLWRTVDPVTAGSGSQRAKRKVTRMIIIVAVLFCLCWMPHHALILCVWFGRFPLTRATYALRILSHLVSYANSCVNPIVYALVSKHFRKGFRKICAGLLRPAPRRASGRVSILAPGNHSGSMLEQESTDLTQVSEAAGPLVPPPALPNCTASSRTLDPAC


How the values were obtained:
Test in all cases: cell-based or functional assay
[1] = molecular target: cynomolgus GalR2 (Macaca fascicularis)
[2] = molecular target: human GalR1 (human) (UniProt P47211)
Sequence of UniProt P47211 (P47211 whole entry): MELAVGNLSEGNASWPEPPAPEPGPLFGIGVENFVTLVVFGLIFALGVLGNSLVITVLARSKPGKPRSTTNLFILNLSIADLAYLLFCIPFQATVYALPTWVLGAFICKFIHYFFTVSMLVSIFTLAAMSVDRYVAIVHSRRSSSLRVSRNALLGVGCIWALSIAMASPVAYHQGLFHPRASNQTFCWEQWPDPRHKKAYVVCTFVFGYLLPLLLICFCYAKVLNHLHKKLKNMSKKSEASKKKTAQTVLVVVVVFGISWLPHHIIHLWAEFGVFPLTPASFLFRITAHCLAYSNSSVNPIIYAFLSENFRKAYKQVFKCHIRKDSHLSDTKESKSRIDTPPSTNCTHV

[3] = molecular target: T1, mouse GalR2 (Mus musculus)
[4] = molecular target: T2, rat GalR2 (Rattus rattus)

| calcium assay activity (quantity not given) [1] | Beta Arrestin IA (%) [2] [%] | cAMP IA (%) [2] [%] | cAMP assay activity (quantity not given) [2] | cAMP pEC50 [2] [pEC50] | calcium assay activity (quantity not given) [3] | calcium assay activity (quantity not given) [4] | Binder |
| --- | --- | --- | --- | --- | --- | --- | --- |
| 8.4 | 42.8 | 80.2 | 7 | 7 | 7 |  | Gal2-30FC (Fc fusion) WTLNSAGYLLGPHAVGNHRSFSDKNGLTSAEAAAKEAAAKAL[human IgG1 Fc with C220S (EU numbers) not spelt out] |
| 7.7 |  |  | 5.4 |  | 6.8 | 6.6 | Gal2-12FC (Fc fusion) WTLNSAGYLLGAEAAAKEAAAKAL[human IgG1 Fc with C220S (EU numbers) not spelt out] |
